# Data as given in PMC4336329 (PLoS ONE, 2015).
# Out of some 310,000 compounds screened, about 2,200 (0.71%) showed an effect of 50% or more. Effects have a minus sign here. Some of the results follow.
# Molecular target: human ether-à-go-go-related gene (hERG) potassium channel (human, UniProt Q12809)
# Assay: primary screen, population patch clamp on CHO cells stably expressing hERG
# Chain of human ether-à-go-go-related gene (hERG) potassium channel (Q12809 whole entry, looked up): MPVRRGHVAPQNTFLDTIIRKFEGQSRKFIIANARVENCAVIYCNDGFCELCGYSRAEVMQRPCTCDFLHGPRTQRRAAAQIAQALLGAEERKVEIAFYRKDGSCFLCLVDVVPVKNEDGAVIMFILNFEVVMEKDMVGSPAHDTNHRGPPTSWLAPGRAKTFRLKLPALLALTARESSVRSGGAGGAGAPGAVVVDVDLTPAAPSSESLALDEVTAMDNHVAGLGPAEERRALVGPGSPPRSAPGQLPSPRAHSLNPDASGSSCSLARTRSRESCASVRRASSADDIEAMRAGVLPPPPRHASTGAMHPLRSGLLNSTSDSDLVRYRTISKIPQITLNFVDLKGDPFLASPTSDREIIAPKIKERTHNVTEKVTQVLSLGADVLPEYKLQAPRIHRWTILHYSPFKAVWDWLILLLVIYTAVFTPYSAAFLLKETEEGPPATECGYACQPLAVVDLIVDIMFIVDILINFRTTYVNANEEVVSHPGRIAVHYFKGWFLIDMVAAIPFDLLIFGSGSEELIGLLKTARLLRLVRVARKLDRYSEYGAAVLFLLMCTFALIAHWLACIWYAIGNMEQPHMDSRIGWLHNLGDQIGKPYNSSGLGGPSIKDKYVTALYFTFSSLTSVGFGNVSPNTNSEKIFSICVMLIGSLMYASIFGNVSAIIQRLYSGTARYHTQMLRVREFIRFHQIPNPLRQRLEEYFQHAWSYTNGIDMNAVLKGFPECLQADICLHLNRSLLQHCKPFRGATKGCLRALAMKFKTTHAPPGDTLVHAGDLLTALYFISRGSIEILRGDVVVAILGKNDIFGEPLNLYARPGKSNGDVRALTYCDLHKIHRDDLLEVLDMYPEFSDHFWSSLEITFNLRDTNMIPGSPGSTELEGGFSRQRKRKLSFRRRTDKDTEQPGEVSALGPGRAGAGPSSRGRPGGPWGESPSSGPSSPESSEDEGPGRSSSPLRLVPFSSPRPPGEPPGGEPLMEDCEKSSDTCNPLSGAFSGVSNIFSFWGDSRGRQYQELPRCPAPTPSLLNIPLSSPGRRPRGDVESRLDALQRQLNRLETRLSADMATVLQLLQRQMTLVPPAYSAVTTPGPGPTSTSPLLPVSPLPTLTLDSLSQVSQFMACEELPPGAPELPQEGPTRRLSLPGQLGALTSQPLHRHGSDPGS
row,SMILES,"hERG current change (%, negative = inhibition) at 1uM"
1,O=C1C=CC(=O)N1c1ccc(N2CCCCC2)cc1,4.62%
2,Cc1ccc(NC(=O)c2ccc(Cn3cc(Cl)cn3)o2)c(C)c1,8.12%
3,CC(C)N1CCN(Cc2cc3c(cc2Cl)OCO3)CC1CCO (stereo not shown),5.63%
4,Cc1cccc(C(=O)Nc2ccc3c(c2)C(=O)N(CC(C)C)C3=O)c1,17.1%
5,CC(C)(C)NC(=O)c1cc(Cl)ccc1[N+](=O)[O-],-10.3%
6,C=CCN1C(=O)/C(=C\c2ccc(Oc3nc(N4CCOCC4)nc(N4CCOCC4)n3)c(OC)c2)SC1=S,17%
7,N#CC[C@H](Cc1ccccc1)N1CCN(CCc2ccccc2)CCC1=O,16.1%
8,CCC(C)(C)n1nnnc1C(c1ccc(OC)c(OC)c1)N1CCN(c2cccc(OC)c2)CC1 (stereo not shown),2.94%
9,CC(=O)NC1C(OCCOc2ccc(Cl)cc2C)OC(CO)C(O)C1O (stereo not shown),12.9%
10,COc1ccc(C/C(C)=N/NC(=O)C2COc3ccccc3O2)cc1 (stereo not shown),9.03%
11,Cc1ccc(C(=O)NCCNc2nc3cc(C)c(C)cc3cc2C)cc1,0.614%
12,COCCn1c(-c2ccc(Cl)cc2)nc2c(c(=O)c3ccccc3n2C)c1=O,9.55%
13,COc1cc(-c2noc(CCC(=O)NC3CCCC3)n2)cc(OC)c1OC,5.34%
14,CCOc1cc2[nH]c(=O)n(CCCC(=O)NCc3ccc(OC)cc3)c(=O)c2cc1OCC,13.2%
15,O=C(NCc1ccco1)c1cc(-c2ccccc2)nn1CC1CC(c2cccnc2)=NO1 (stereo not shown),-40%
16,Cc1cc(Cl)ccc1OCCCC(=O)NNC(=O)c1ccncc1,-1.24%
17,CC(=O)Nc1ccccc1C(=O)OCc1cccc(F)c1,-5.07%
18,COCCn1c(C)cc(C(=O)CSc2ccc3ccccc3n2)c1C,-3.05%
19,COc1ccc2[nH]c(=O)c(CN(c3ccc(C)c(C)c3)S(C)(=O)=O)cc2c1,7.75%
20,CCCCC(=O)Nc1c(O)c2ccccc2[nH]c1=O,1.78%
21,CCOC(=O)CC1(NC(=O)c2cc(COc3cccc(OC)c3)on2)CCCCC1,10.3%
22,COc1ccc(N(CC(=O)NC2CCCCC2)C(=O)CNC(=O)c2ccco2)c(OC)c1,9.86%

row,SMILES,"hERG current change (%, negative = inhibition) at 1uM"
1,COc1ccccc1N1CCN(C(=O)CSc2nnc(NC(=O)C3CC3)s2)CC1,5.31%
2,CC1(C)CC2(CC(c3ccccc3)c3ccc(O)cc3O2)NC(=S)N1 (stereo not shown),19.5%
3,Nc1nc(SCC(=O)NN(c2ccccc2)c2ccccc2)n[nH]1,3.95%
4,Cc1cc(C=O)c(O)cc1O,7.64%
5,CCN1CC=C2C(C#N)=C(N)C(C#N)(C#N)[C@H](c3cccc(OC)c3OC)[C@H]2C1,1.1%
6,COc1ccccc1Oc1c(C)oc2c(CN(C)C)c(O)ccc2c1=O,5.97%
7,COC(=O)COn1c(-n2nc(C)cc2C)nc2ccccc2c1=O,14.6%
8,CCOc1ccc2nc(NC(=O)c3cccc(-c4cc5ccccc5oc4=O)c3)sc2c1,10.8%
9,O=C(COc1ccc(Cl)cc1Cl)Nc1noc2ccccc12,20%
10,CCOc1ccc(N2CC(C(=O)NC(C)C)CC2=O)cc1 (stereo not shown),11.2%
11,CCOC(=O)C(C(=O)OCC)N(C#N)c1nc(OC)nc(N(C)C)n1,0.944%
12,N#Cc1cccc(NC(=O)COC(=O)CCc2nc3ccccc3c(=O)[nH]2)c1,8.45%
13,COc1cccc(C(=O)OCC(=O)c2ccc(Br)s2)c1OC,6.08%
14,CC1(C)Cc2cccc(Oc3ccc(S(=O)(=O)N4CCCC4)cn3)c2O1,-5.56%
15,COC(=O)c1cc(S(=O)(=O)N2CCCC2=O)c(Cl)cc1Cl,12.6%
16,C#CCSc1nnc(-c2cc3c(C(F)(F)F)nn(C)c3s2)n1C,15.5%
17,CC(C)(CNC(=O)c1ccccc1NS(C)(=O)=O)N1CCCCC1,6.69%
18,Fc1ccccc1NC(=S)N1CCOCC1,12.2%
19,Cc1ccn2c(=O)nc(SCc3cccc(C(F)(F)F)c3)nc2c1,2.48%
20,CCOc1ccc(S(=O)(=O)Nc2nc3cc(OC)ccc3s2)cc1,9.1%
21,CCC/C=C(\CCC)C(NC(=O)c1ccc(C(F)(F)F)cc1)c1ccccc1 (stereo not shown),17.5%
22,Cc1cccc(NC(=O)c2nc(-c3ccccc3)n(-c3ccccc3)n2)c1C,-9.78%

row,SMILES,"hERG current change (%, negative = inhibition) at 1uM"
1,O=C(NCCc1ccccc1)c1cccc([N+](=O)[O-])c1,14.4%
2,COC(=O)c1cc(C(=O)NNC(=O)c2ccc3c(c2)OCO3)cc([N+](=O)[O-])c1,4.47%
3,Cc1ccc(C(=O)OCC(=O)c2ccc(CC(=O)N3CCOCC3)s2)cc1C,-13.5%
4,NS(=O)(=O)c1ccc(NC(=O)CSc2nc3ccccc3[nH]2)cc1,-0.413%
5,Cc1ccc(CS(=O)(=O)CCC(=O)NCCCOC(C)C)cc1,7.23%
6,O=C(NCc1ccccc1Cl)c1ccc(S(=O)(=O)Nc2cccc(C(F)(F)F)c2)cc1,12.6%
7,Cc1ccc(OC(C)C(=O)Nc2ccccc2C(=O)N2CCN(C)CC2)cc1 (stereo not shown),5.52%
8,COc1cccc(-c2ncc3ccccc3c2COC(=O)c2ccco2)c1,11.7%
9,CCC1(CC)C(=O)N=C2c3ccccc3C(=O)N21,0.387%
10,COc1ccc(NC(=O)CCNS(=O)(=O)c2ccc3c(c2)CCC(=O)N3)cc1,4.36%
11,COCCCN(C(=O)c1ccccc1F)c1nc(-c2ccc(OC)cc2)cs1,12%
12,CCO/C(C)=C1\C(=O)N(CC)c2ccccc21,6.14%
13,CCC(C(=O)NC1CCCC1)N(C(=O)Cn1nnc(-c2ccc(OC)c(OC)c2)n1)C1CCCCC1 (stereo not shown),0.313%
14,CCOC(=O)N1CCC(NC(=O)c2cccs2)CC1,9.95%
15,COc1ccc(S(=O)(=O)NCc2ccccn2)cc1Cl,0.79%
16,CCc1nnc(NC(=O)C2CC(=O)N(Cc3ccco3)C2)s1 (stereo not shown),5.88%
17,C/C(=N\Nc1ccccc1[N+](=O)[O-])c1ccccc1O,20.4%
18,CCCOc1ccc(N2C(=O)CC(SC(=NC)Nc3ccc(F)cc3)C2=O)cc1 (stereo not shown),12.5%
19,Cc1ccccc1N1CCN(S(=O)(=O)c2nnc(NC(=O)CC(C)C)s2)CC1,16.3%
20,COc1ccccc1-n1c(COc2ccccc2-c2ccccc2)nnc1SCC(=O)c1c(N)n(C)c(=O)n(C)c1=O,15.4%
21,CCn1c(/N=C/c2c[nH]c3ccccc23)nc2ccccc21,12.2%
22,C=CCn1c(SC(C)C(=O)NCc2ccc3c(c2)OCO3)nnc1C1CCCCC1 (stereo not shown),4.76%

row,SMILES,"hERG current change (%, negative = inhibition) at 1uM"
1,COC(=O)c1ccccc1-c1cn(C)c2ccccc2c1=O,9.38%
2,CC(=O)SCC(C)C(=O)NCc1ccccc1 (stereo not shown),20.2%
3,CCN(CC(=O)Nc1ccc(NC(C)=O)cc1)C(=O)c1cc2c(s1)CCCCC2,2.11%
4,CC1(C)CC(=O)C2=C(C1)OC(N)=C(C#N)C21CCN(Cc2ccccc2)CC1,16.2%
5,Cc1ccc(CSCC(=O)NCCCN2CCOCC2)cc1,16.7%
6,O=C(NCCNS(=O)(=O)c1ccccc1)c1cc(OCC(F)(F)F)ccc1OCC(F)(F)F,0.144%
7,O=C(c1ccc(CNc2c(N3CCCC3)c(=O)c2=O)cc1)N1CCN(C2CCCCC2)CC1,13.2%
8,Cc1ccc(OCC(O)CN2C(=O)NC(C)(C)C2=O)c(C)c1 (stereo not shown),6.92%
9,Cc1ccc2c(c1)N(C(C)C(=O)N1CCC3(CC1)OCCO3)C(=O)CO2 (stereo not shown),13.9%
10,CCOC(=O)c1cc2c(=O)n3ccccc3nc2n(CCCOC)c1=NC(=O)c1ccncc1,-40%
11,CCCn1c(-c2ccc[nH]c2=O)nc2ccccc21,13.6%
12,Br.CC(C)CC1CC(=O)OC1(C)C(=O)CSc1nc2ccccc2s1 (stereo not shown),13.8%
13,Cc1ccc(NC(=O)Cc2nnc(SCC(=O)NC3CCCC3)n2C)cc1,11.4%
14,CC1=C(C(=O)N2CCOCC2)C(c2ccccc2F)C2=C(CC(C)(C)CC2=O)N1 (stereo not shown),2.56%
15,COc1ccc(NS(=O)(=O)c2ccc(N3CCCC3=O)cc2)cn1,10.6%
16,COc1cc(C(=O)Nc2ccc(N(C)C)cc2)c([N+](=O)[O-])cc1OC,13.6%
17,COc1cc(/C=N/N=C/c2c[nH]c(=O)c(C#N)c2Nc2ccccc2)ccc1O,8.15%
18,CCC[C@@H]1C[C@@]1(CCC)[C@@H](NP(=O)(c1ccccc1)c1ccccc1)c1ccc(C(=O)OC)cc1,8.17%
19,CCCCCNC(=O)c1ccccc1SC,7.72%
20,CCOc1ccc(CCNC(=O)c2sc3nc4n(c(=O)c3c2C)CCC4)cc1OCC,0.811%
21,Cc1ccc(N2CC(C(=O)Nc3ccncc3)CC2=O)cc1 (stereo not shown),6.22%
22,Nc1nnc(CCS(=O)(=O)c2ccc(Cl)cc2)s1,0.573%
